Values quoted from earlier work, collected in patent US20060024344A1 (priority 2004, published 2006).

Settings: cooking, or freezing

COc1cc(CNC(=O)CCCC/C=C/C(C)C)ccc1O [capsaicin, 8-methyl-n-vanillyl-6-nonenamide]
stability to cold or heat: seemingly unaffected by cold or heat
